Results taken from PubChem BioAssay (NCATS).
Inconclusive means that the source gave no clear call. Such entries were picked first, then a sample of the others. A potency beside an inconclusive call is a rough fit, not a confirmed value. Calls of active or inactive are those of the source. The call rests on the fitted dose curve; in most records, active means well fitted cell-killing curve with a large enough effect; inconclusive means small, poorly fitted or top-dose-only effect, or effect the other way; inactive means no such curve, though single readings can be large or run the other way.

Key:
[1] = Viability qHTS for spleen associated tyrosine kinase inhibitor (SYKi) naive MV4-11 cells (AID 1963823); conditions: MV4-11 AML viability, CellTiter-Glo luminescence, 72 h; series mostly up to 45 µM; further: nearly all actives have a fitted effect of over 40% in size
Method in brief: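 Read-out: CellTiter-Glo luminescence. Exposure: 72 hr, 37 C, 5% CO2, 95% humidity. Cells: MV4-11 without SYK inhibitor history, 500/well, qHTS format.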

[2] = Viability qHTS for spleen associated tyrosine kinase inhibitor (SYKi) drug resistant MV4-11 cells (AID 1963824); conditions: SYKi-resistant MV4-11 viability, CellTiter-Glo, 72 h; series mostly up to 45 µM; further: nearly all actives have a fitted effect of over 35% in size
Method in brief: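 SYK inhibitor-resistant MV4-11 AML cells, 500 per well, added to predispensed compounds and incubated 72 hr at 37 C, 5% CO2. Viability measured by CellTiter-Glo luminescence after 10 min at room temperature.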
Potency means the concentration at half of the fitted maximal effect; tags describe the fitted curve by direction and shape.

SMILES	Potency [1]	Potency [2]
Cc1c(-c2ccnc(Nc3cc(Br)cc(C(F)(F)F)c3)n2)sc(=O)n1C	inactive	inactive
COc1ncc(Nc2ncc(C(C)N3CCN(S(C)(=O)=O)CC3)cc2-c2nc(C)nc(N)n2)cc1F (stereo unspecified)	inconclusive: 0.0026 µM [cytotoxic, full curve, poor fit]	inconclusive: 7.42 µM [cytotoxic, full curve, poor fit]
COc1ccccc1OCC1CNC(=O)O1 (stereo unspecified)	inconclusive: 0.0019 µM [rising, full curve]	inconclusive: 0.0021 µM [rising, full curve]
CC(C)c1nc(N(C)S(C)(=O)=O)nc(-c2ccc(F)cc2)c1/C=C/[C@@H](O)C[C@@H](O)CC(=O)O	active: 8.2 µM	active: 2.91 µM
COc1cc(O)cc2c1C(=O)OC(C)CCCCCCC2 (stereo unspecified)	inconclusive: 14.6 µM [cytotoxic, partial curve]	inconclusive: 16.4 µM [cytotoxic, partial curve]
O=C(Nc1ccc(F)cc1)N1CCc2ccccc2C1c1ccc(C(F)(F)F)cc1 (stereo unspecified)	inconclusive: 2.59 µM [cytotoxic, full curve]	inconclusive: 2.06 µM [cytotoxic, full curve]
C=C1CCC2C(C)(C)CCCC2(C)C1CC/C(C)=C\CO (stereo unspecified)	inconclusive: 11.6 µM [cytotoxic, partial curve]	inconclusive: 16.4 µM [cytotoxic, partial curve]
CO[C@H]1C[C@@H]2CC[C@@H](C)[C@@](O)(O2)C(=O)C(=O)N2CCCC[C@H]2C(=O)O[C@H]([C@H](C)C[C@H]2CC[C@@H](OP(C)(C)=O)[C@H](OC)C2)CC(=O)[C@H](C)/C=C(\C)[C@@H](O)[C@@H](OC)C(=O)[C@H](C)C[C@H](C)/C=C/C=C/C=C/1C	inconclusive: 14.3 µM [cytotoxic, partial curve]	inconclusive: 10.1 µM [cytotoxic, partial curve, poor fit]
